Results: PubChem BioAssay AID1346428 (National Center for Advancing Translational Sciences (NCATS), 2018)
Screen size: about 48,000 compounds; about 1,200 (2.5%) were called active. Inconclusive results (about 2%) are left out.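 Rule for the calls: active = activation of at least 60% and not above a set upper limit (about 1 call in 100 departs from these limits); inconclusive = activation of 40% to 60%, or above that upper limit; inactive = activation under 40%.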 Some of the results follow.

Biological target: Probable G-protein coupled receptor 32 (Homo sapiens) (UniProt O75388)
Test: qHTS for Agonists of Human Resolvin D1 Receptor DRV1; note: 0% is about no effect
Conditions: CHO-K1 GPR32 beta-arrestin PathHunter luminescence, 90 min; at 76.9 µM; active compounds read high; zero percent set by DMSO-only wells
Procedure, shortened: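 GPR32 activation in stably transfected CHO-K1 cells, detected as beta-arrestin recruitment by enzyme-fragment complementation. Compound exposure: 90 min, 37 °C.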

Chain of UniProt O75388 (O75388 whole entry, looked up): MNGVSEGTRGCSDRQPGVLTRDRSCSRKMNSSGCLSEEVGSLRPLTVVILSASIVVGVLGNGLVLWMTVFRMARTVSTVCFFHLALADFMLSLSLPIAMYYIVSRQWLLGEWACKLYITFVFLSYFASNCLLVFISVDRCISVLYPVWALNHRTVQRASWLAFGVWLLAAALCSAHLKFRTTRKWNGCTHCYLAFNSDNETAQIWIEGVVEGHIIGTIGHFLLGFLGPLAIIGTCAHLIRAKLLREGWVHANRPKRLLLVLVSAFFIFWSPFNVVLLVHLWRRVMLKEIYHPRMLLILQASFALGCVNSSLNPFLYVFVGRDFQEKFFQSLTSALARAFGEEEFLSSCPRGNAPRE

Row | Structure (SMILES) | activation
1 | O=C(NCc1ccc(F)cc1)c1ccc(NC(=O)N2CC3CCCN3c3ccccc32)cc1 (stereo not given) | inactive: -16.8%
2 | CCOc1ccc(-c2cnc(NCc3ccc(OC)cc3OC)n2C)cc1 | inactive: -33.3%
3 | CC(=O)c1ccc(NC(=O)c2ncn(-c3ccccc3)n2)cc1 | inactive: -11.5%
4 | COc1ccc(Cl)cc1NC(=O)CCC(=O)c1ccc(C)cc1 | inactive: 10.8%
5 | Cc1ccc2nc(N(Cc3cccnc3)C(=O)C3COc4ccccc4O3)sc2c1 (stereo not given) | inactive: -4.5%
6 | CCc1ccc(CN(C(=O)c2cc3ccccc3oc2=O)C2CCS(=O)(=O)C2)cc1 (stereo not given) | inactive: -4.31%
7 | Cc1ccc(CSc2cn(CC(=O)N3CCCCC3)c3ccccc23)cc1 | inactive: -29.2%
8 | CCc1c(C)sc2c1CCN(Cc1ccc(F)cc1)C2c1ccccc1 (stereo not given) | inactive: 6.2%
9 | COc1ccc(CNC(=O)COCc2cc(-c3cccs3)on2)cc1OC | inactive: 10.5%
10 | CCCCNC(=O)CCCn1c(=O)c2ccccc2n(Cc2ccccc2C)c1=O | inactive: -13.1%
11 | CCn1cc(C(=O)NCCc2ccccc2)c(=O)c2cc(S(=O)(=O)N(C)C3CCCCC3)ccc21 | inactive: -11.1%
12 | CC(=O)Nc1cccc(C(=O)NCc2ccc3c(c2)CCN3C(C)=O)c1 | inactive: -7.41%
13 | COc1ccc(-c2noc(-c3ccc(NCc4ccccc4OC)c([N+](=O)[O-])c3)n2)cc1 | inactive: -4.73%
14 | Cc1ccc(C2=Nc3ccccc3N(CC(=O)Nc3cccc(F)c3)C(=O)C2)cc1C | inactive: -19.8%
15 | CN(C)C(=O)CNC(=O)Cc1ccccc1 | inactive: 5.87%
16 | CC(=O)c1[nH]c(C)c(C(=O)NCCc2ccc(C)cc2)c1C | inactive: -7.34%
17 | O=c1oc2c3c(ccc2c2ccccc12)OCN(Cc1cccc(Cl)c1)C3 | inactive: -75.9%
18 | CN(C)CCCNc1oc(/C=C/c2ccc(F)cc2)nc1C#N | inactive: -31%
19 | Cc1ccc(NC(=O)CCCn2c(=O)c3cccn3c3cccnc32)c(Cl)c1 | inactive: -6.39%
20 | Cc1cc(C)c(NC(=O)CSc2nccn2Cc2ccco2)c(C)c1 | inactive: -12.2%
21 | O=C(CN1CCN(Cc2ccc(Cl)cc2)C1=O)NCc1ccc(F)cc1 | inactive: -11.8%
22 | Cc1c(CCNC(=O)Cc2ccccc2)sc2nc(-c3ccc(F)cc3)nn12 | inactive: -21.3%

Row | Structure (SMILES) | activation
23 | CCOc1ccccc1N(C)C(=O)C1CCCN(c2ncnc3onc(-c4ccc(F)cc4)c23)C1 (stereo not given) | inactive: -12.1%
24 | Cc1ccc2oc(=O)c3cc(C(=O)N(Cc4ccccc4)C(C)C)sc3c2c1 | inactive: -4.97%
25 | O=C(CSc1oc(-c2ccco2)nc1S(=O)(=O)c1ccc(Cl)cc1)c1ccc(Cl)cc1 | inactive: -9.38%
26 | COc1ccc(CNC(=O)CC2N=C3c4ccccc4N=C(SCC(=O)Nc4ccc(N(C)C)cc4)N3C2=O)cc1 (stereo not given) | inactive: -9.57%
27 | Cc1ccc(CN2c3ccccc3S(=O)(=O)c3ccccc32)cc1 | inactive: -19.4%
28 | COc1ccc(-c2c3c(=O)n(C)c(=O)n(C)c3c3c(-c4ccc(C)cc4)nc4ccccc4n23)cc1 | inactive: 1.7%
29 | Cc1ccc(NC(=O)Cn2c(-c3ccc4c(c3)OCO4)cn(-c3ccccc3)c2=O)cc1 | inactive: -24.5%
30 | Cc1ccc2c(c1)c1c(c(=O)n(Cc3ccccc3)c(=O)n1CC(=O)Nc1ccccc1C)n2C | inactive: -6.14%
31 | Cc1ccc(S(=O)(=O)Nc2cc3c(cc2N2CCOCC2)n(C)c(=O)n3C)c(C)c1 | inactive: -12%
32 | CCCCCNC(=O)C(=O)NCC(c1ccc2c(c1)OCO2)N1CCOCC1 (stereo not given) | inactive: -10.3%
33 | CCC(C(=O)Nc1cccc(C#N)c1)n1c(=O)c(-c2ccccc2NC(C)=O)nc2ccccc21 (stereo not given) | inactive: -39.6%
34 | Cc1ccc(CSc2nc(=O)c3c(n2C)NC(=O)CC3c2ccc(OC(C)C)cc2)cc1 (stereo not given) | inactive: -6.84%
35 | COC(=O)C1=C(C)NC(C)=C(C(=O)OCCc2ccc(N3CCN(C(c4ccccc4)c4ccccc4)CC3)cc2)C1c1cccc([N+](=O)[O-])c1 (stereo not given) | inactive: -0.0168%
36 | CCN1CCC(N(Cc2cccc(OC)c2)C(=O)Nc2ccc(C)cc2Cl)CC1 | inactive: -9.95%
37 | CCCN(CCc1ccccc1)C1CCc2c(O)cccc2C1 (stereo not given) | inactive: -21.7%
38 | CCc1nnc(NC(=O)CSCc2cc(=O)c3ccc(C)cc3[nH]2)s1 | inactive: -12.2%
39 | N.N.N.N.N.N.N.N.N.N.N.N.N.N.O.O.[Ru+4].[Ru+5].[Ru+5] | inactive: -17.4%
40 | COc1cc(NC(=O)c2cnn(-c3cccc(F)c3)c2C2CCNCC2)cc(OC)c1OC | inactive: 23.5%
41 | Cc1cc(O)c(C(c2ccccc2Cl)N2CCN(c3ccccc3)CC2)c(=O)n1Cc1ccco1 (stereo not given) | inactive: -8.77%
42 | COc1cc(CN(C(=O)COc2ccc(C)c(C)c2)c2ccccn2)cc(OC)c1OC | inactive: -12.7%
43 | COc1ccc(NC(=O)CN(Cc2ccccc2)S(=O)(=O)c2ccc3nc(C)sc3c2)cc1 | inactive: -10.6%
44 | O=C(Cn1cccc1C(=O)c1ccccc1)NCc1ccc(F)cc1 | inactive: -17.9%

Row | Structure (SMILES) | activation
45 | CN1C(C(=O)Nc2ccc(OC(F)(F)F)cc2)=CC(c2ccc3c(c2)OCO3)=NS1(=O)=O | inactive: -10.2%
46 | COc1cc2c(=O)n(Cc3ccccc3)c(=O)n(CC(=O)Nc3cc(C(F)(F)F)ccc3Cl)c2cc1OC | inactive: -1.3%
47 | COC(=O)c1cc2oc(C)cc2n1Cc1c(C)cc(C)cc1C | inactive: -19.8%
48 | CCN(CC)c1ccc(NS(=O)(=O)c2ccc3c(c2)CCCN3C(C)=O)c(C)c1 | inactive: -6.99%
49 | COc1cc2nc(SCC(=O)Nc3ccc(F)cc3)n3nc(CCn4c(C)nc5ccccc54)nc3c2cc1OC | inactive: -8.55%
50 | CCOC(=O)c1c(C)oc2ncnc(NCCc3ccccc3)c12 | inactive: 19.2%
51 | CCc1ccc(N2CCn3c2nc2c3c(=O)n(Cc3cccc(C)c3)c(=O)n2C)cc1 | inactive: -13.1%
52 | COc1ccc(C2c3c(n(C)c4ccccc34)C(=O)N2CC(=O)Nc2ccc(Cl)cc2)cc1 (stereo not given) | inactive: -28.3%
53 | CCCN1CCN(CCNC(=O)Nc2cc(OC)cc(OC)c2)CC1 | inactive: -7.47%
54 | Cc1ccc(NC(=O)C(=O)NCC(c2ccc3c(c2)OCO3)N2CCOCC2)c(C)c1 (stereo not given) | inactive: -0.96%
55 | O=C(CSc1ncc2c(n1)-c1ccccc1N(Cc1ccc(F)cc1)S2(=O)=O)c1ccc(Br)cc1 | inactive: -3.24%
56 | Cc1ccc(OC(=O)c2snnc2C)cc1C | inactive: -0.261%
57 | CC(C)c1ccc(OCc2cc(=O)n3c4c(sc3n2)CCCC4)cc1 | inactive: -0.0055%
58 | Cc1cccc(NC(=O)CSc2nc3ccc(NC(=O)c4cccs4)cc3s2)c1 | active: 64.3%
59 | CCc1ccc(Nc2cc(C)nc3nc(Cc4ccc(Cl)cc4)nn23)cc1 | inactive: -1.75%
60 | COc1ccc(OCC(=O)Nc2cc(-c3cccc(Cl)c3)nn2-c2ccccc2)cc1 | active: 100%
61 | N#Cc1ccc(C(=O)N2CCN(c3nc4ccc(F)cc4s3)CC2)cc1 | inactive: 29.6%
62 | O=C(NC1CCCCC1)c1ccc2c(c1)sc1nc(-c3ccccc3)cn12 | inactive: 38.5%
63 | CCOC(=O)c1ccc(CSc2nnc3cc(C)c4ccccc4n23)cc1 | inactive: -33.5%
64 | COc1ccccc1NC(=O)CN(c1ccc(C(C)C)cc1)S(=O)(=O)c1c(C)noc1C | inactive: -29.5%
65 | CCN(CC)CCN(C(=O)c1ccco1)c1nc2c(C)cccc2s1 | inactive: 40.3%
66 | COc1cc2c(cc1OC)C(c1ccc(Cl)cc1)N(c1ccc(C)c(F)c1)C(=O)C2 (stereo not given) | inactive: -7.38%

Row | Structure (SMILES) | activation
67 | COc1ccc(-c2oc3ncn4nc(-c5ccc(Cl)cc5)nc4c3c2-c2ccc(OC)cc2)cc1 | inactive: -8.99%
68 | O=C(c1ccc2c(c1)OCCO2)N(Cc1cccnc1)c1nc2ccc(F)cc2s1 | inactive: -5.45%
69 | CCOc1ccc(CNC(=O)c2cc3c(=O)n(C)c4ccccc4c3s2)cc1 | inactive: 19.4%
70 | Cc1ccc(NC(=O)Cn2c(=O)n(Cc3ccco3)c(=O)c3ccccc32)cc1 | inactive: -12.4%
71 | CCN(CC)CCCNC(=O)c1cc(-c2ccc(OC)c(OC)c2)on1 | inactive: -10.8%
72 | Cc1cc(C)n2nc(CNS(=O)(=O)c3ccc(Cl)cc3)nc2n1 | inactive: -4.62%
73 | CC1CN(C(=O)N2CCC(C(=O)NC3CCCCCC3)CC2)c2cc(Cl)ccc2O1 (stereo not given) | inactive: 1.62%
74 | Cc1ccc(NC(=O)C2CCCN2S(=O)(=O)c2cccc3cccnc23)cc1 (stereo not given) | inactive: -1.52%
75 | COc1ccc(-c2ccnc3c(-c4ccc(F)cc4)c(C)nn23)cc1OC | inactive: 11.5%
76 | COc1cc(C(=O)NC2CC(=O)N(c3cccc(F)c3)C2)cc(OC)c1OC (stereo not given) | inactive: -8%
77 | O=C(Cn1cc(SCc2cccc(Cl)c2)c2ccccc21)N1CCOCC1 | inactive: -31.2%
78 | O=c1[nH]c(SCc2ccc(F)cc2)nc2c1CCCC2 | inactive: 33.4%
79 | CCc1nnc2c(NCc3ccc(F)cc3)nc3ccccc3n12 | inactive: 0.395%
80 | COc1ccc(CNC(=O)C2CCCN(S(=O)(=O)c3ccc4c(c3)CCCN4C(C)=O)C2)cc1 (stereo not given) | inactive: 8.41%
81 | COc1ccc(NC(=O)c2ccco2)cc1NC(=O)COc1cc(C)cc(C)c1 | inactive: 12.5%
82 | CCC(=O)N1CCc2cc(Br)cc(S(=O)(=O)N3CCN(c4ccccc4)CC3)c21 | inactive: -0.862%
83 | CCOc1ccc2nc(N3CCCC(C(=O)Nc4ccc(Br)c(C)c4)C3)sc2c1 (stereo not given) | inactive: -1.96%
84 | COc1ccc2c(c1)NC(c1ccc(OCC(C)C)cc1)=NC(c1ccncc1)=N2 | inactive: -29.2%
85 | COc1ccc(CCNC(=O)c2cc(Sc3cccc(Cl)c3)nc3ccccc23)cc1OC | inactive: -19.6%
